# Assay results published in PubChem BioAssay (Tox21).
# The shares of active, inactive and inconclusive entries below differ from those in the screen. For some of these results: Potencies beside an inconclusive call are fits to weak or partial responses and may not hold up. Active and inactive are the calls of the source. Unless noted, calls follow the shape of the dose curve; as a rule, active = well fitted curve in the direction sought with a large enough effect in the repeat runs; inconclusive = weak or mixed curves; inactive = no such curve, though single readings can be large; an effect the other way counts as inactive or inconclusive.
# Key:
# [1] = qHTS assay for small molecule agonists of the antioxidant response element (ARE) signaling pathway (AID 743202; active = well fitted activation curve with a large enough effect in the signal ratio in the repeat runs, not every such curve was filed as active; inconclusive = weak or mixed curves, or effect the other way; inactive = no such curve, though single readings can be large or run the other way; the % refers to the signal ratio; also: potency is read from the fitted curve at half-maximal effect); settings: HepG2 ARE-bla reporter, beta-lactamase FRET, 16 h; activation: at 73.3 µM (top of the series) unless noted
# Summary of the method: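 An ARE-responsive beta-lactamase gene stably integrated in HepG2 cells serves as reporter. After 5 h plating and 16 h compound incubation at 37 C, fluorescence of the B/G FRET substrate was measured.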
# [2] = qHTS assay to identify small molecule agonists of the peroxisome proliferator-activated receptor delta (PPARd) signaling pathway - cell viability counter screen (AID 743211); settings: PPARd-bla HEK293H viability, CellTiter-Glo luminescence, 17 h; activity change, negative = cytotoxicity: at 62.6 µM (top of the series); also: nearly all actives have a fitted effect of over 55% in size; also: potency is read from the fitted curve at half-maximal effect
# Summary of the method: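 Multiplexed format: after the 2 h room-temperature LiveBLAzer B/G FRET step, CellTiter-Glo was added to the same wells. Luminescence after 30 min gave cell viability; compound exposure was 17 h at 37C.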
# [3] = qHTS assay to identify small molecule antagonists of the peroxisome proliferator-activated receptor delta (PPARd) signaling pathway - cell viability counter screen (AID 743213); settings: PPARd-bla HEK293H viability, CellTiter-Glo luminescence, 17 h; viability change, negative = cytotoxic: at 62 µM (top of the series) unless noted; also: nearly all actives have a fitted effect of over 50% in size; also: potency is read from the fitted curve at half-maximal effect
# Summary of the method: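 Same-well viability: cells pre-incubated 5 h, dosed with compound plus 300 nM L165041, kept 17 h at 37 C, FRET substrate 2 h RT, then CellTiter-Glo 30 min RT and luminescence.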
# [4] = qHTS assay to identify small molecule agonists of the vitamin D receptor (VDR) signaling pathway - cell viability counter screen (AID 743224); settings: VDR-bla HEK293T viability, CellTiter-Glo luminescence, 16 h; activity change, negative = cytotoxicity: at 62.6 µM (top of the series); also: nearly all actives have a fitted effect of over 50% in size; also: potency is read from the fitted curve at half-maximal effect
# Summary of the method: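 Luminescence from CellTiter-Glo, read after 30 min at room temperature, reports viability of VDR-bla cells treated with compounds for 16 h at 37C in the wells used for the beta-lactamase FRET read.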
# [5] = qHTS assay to identify small molecule antagonists of the vitamin D receptor (VDR) signaling pathway - cell viability counter screen (AID 743225); settings: VDR-bla HEK293T viability, CellTiter-Glo luminescence, 16 h; viability change, negative = cytotoxic: at 61 µM (top of the series) unless noted; also: nearly all actives have a fitted effect of over 50% in size; also: potency is read from the fitted curve at half-maximal effect
# Summary of the method: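 Cytotoxicity toward the VDR-bla HEK 293T line was scored by ATP-based CellTiter-Glo luminescence, read in the wells already used for the beta-lactamase readout after 16 h compound treatment under 3 nM 1-alpha,25-dihydroxyvitamin D3 stimulation.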
# [6] = molecular target: Nuclear receptor ROR-gamma (Homo sapiens) (UniProt P51449); assay: qHTS assay to identify small molecule antagonists of the retinoid-related orphan receptor gamma (ROR-gamma) signaling pathway (AID 1159521; also: nearly all actives have a fitted effect of over 50% in size; also: potency is read from the fitted curve at half-maximal effect)
# Summary of the method: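 Readout: ONE-Glo luciferase luminescence, 30 min at room temperature. System: Tet-on RORγ CHO, RORE-LUC. Sequence: compound 2 h, doxycycline 1 uM final, 16 h at 37 C.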
# [7] = qHTS assay to identify small molecule agonists of the AP-1 signaling pathway (AID 1159526; calls by dose curve; also: potency is read from the fitted curve at half-maximal effect); settings: ME-180 (cervical carcinoma) AP-1-bla reporter, beta-lactamase FRET ratio, 5 h; activation: at 76.8 µM (top of the series) unless noted
# [8] = molecular target: Bile acid receptor (Homo sapiens) (UniProt Q96RI1); assay: qHTS assay to identify small molecule antagonists of the farnesoid-X-receptor (FXR) signaling pathway (AID 743217; active = well fitted inhibition curve with a large enough effect in the signal ratio in the repeat runs, not every such curve was filed as active; inconclusive = weak or mixed curves, or effect the other way; inactive = no such curve, though single readings can be large or run the other way; the % refers to the signal ratio; also: % is scaled to controls: 0 for no effect and ±100 for the full control effect); settings: HEK293T FXR-UAS-bla, beta-lactamase ratio, CDCA-stimulated, 16 h; activity change, negative = inhibition: at 62.6 µM (top of the series) unless noted
# Summary of the method: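 HEK 293T FXR-UAS-bla, 5000 cells/well; compound + CDCA 50 uM final; 16 h, 37 °C; B/G FRET substrate 2 h RT; fluorescence.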
# [9] = molecular target: Vitamin D3 receptor (Homo sapiens) (UniProt P11473); assay: qHTS assay to identify small molecule antagonists of the vitamin D receptor (VDR) signaling pathway (AID 743223; active = well fitted inhibition curve with a large enough effect in the signal ratio in the repeat runs, not every such curve was filed as active; inconclusive = weak or mixed curves, or effect the other way; inactive = no such curve, though single readings can be large or run the other way; the % refers to the signal ratio; also: potency is read from the fitted curve at half-maximal effect); settings: VDR-UAS-bla HEK293T, beta-lactamase FRET ratio, 16 h; activity change, negative = inhibition: at 61 µM (top of the series) unless noted
# Summary of the method: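 After VDR-bla cells are plated and left 4 h at 37C, DMSO-dissolved compounds and 3 nM (final) calcitriol agonist are added. Incubation continues 16 h at 37C; FRET beta-lactamase substrate then develops 2 h at room temperature.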
# [10] = qHTS assay to identify small molecule antagonists of the farnesoid-X-receptor (FXR) signaling pathway - cell viability counter screen (AID 743221; active = well fitted cell-killing curve with a large enough effect in the repeat runs, not every such curve was filed as active; inconclusive = weak or mixed curves, or effect the other way; inactive = no such curve, though single readings can be large or run the other way); settings: FXR-bla HEK293T viability, CellTiter-Glo luminescence, 16 h; activity change, negative = cytotoxicity: at 62.6 µM (top of the series) unless noted
# Summary of the method: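 CellTiter-Glo, 30 min RT, luminescence; same wells as the LiveBLAzer FRET read. Cells: FXR-UAS-bla HEK 293T. Treatment: compound with chenodeoxycholic acid 50 uM final, 16 h at 37 C.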
# [11] = molecular target: Peroxisome proliferator-activated receptor delta (Homo sapiens) (UniProt Q03181); assay: qHTS assay to identify small molecule antagonists of the peroxisome proliferator-activated receptor delta (PPARd) signaling pathway (AID 743215; active = well fitted inhibition curve with a large enough effect in the signal ratio in the repeat runs, not every such curve was filed as active; inconclusive = weak or mixed curves, or effect the other way; inactive = no such curve, though single readings can be large or run the other way; the % refers to the signal ratio;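 also: cells stimulated with agonist L165041 at 300 nM final during compound exposure; % is scaled to controls: 0 for no effect and ±100 for the full control effect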); settings: HEK293H PPARd-UAS-bla, beta-lactamase FRET ratio, antagonist, 17 h; ratio activity, negative = inhibition: at 62 µM (top of the series) unless noted
# Summary of the method: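 Read-out is beta-lactamase FRET fluorescence, measured 2 h after substrate addition at room temperature. Beforehand, UAS-bla HEK293H cells carrying the PPARd reporter were exposed to compounds with L165041 at 300 nM final for 17 h at 37 C.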
# [12] = qHTS assay to identify small molecule agonists of the farnesoid-X-receptor (FXR) signaling pathway - cell viability counter screen (AID 743218); settings: FXR-bla HEK293T viability, CellTiter-Glo luminescence, 16 h; viability change, negative = cytotoxic: at 62.6 µM (top of the series) unless noted; also: potency is read from the fitted curve at half-maximal effect; nearly all actives have a fitted effect of over 45% in size
# Summary of the method: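 HEK 293T FXR-bla cells; 5 h pre-incubation, 16 h compound exposure at 37 C; LiveBLAzer substrate 2 h RT, then CellTiter-Glo 30 min RT, luminescence.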
# [13] = qHTS assay for small molecule agonists of the antioxidant response element (ARE) signaling pathway - cell viability counter screen (AID 743203; calls by dose curve; also: nearly all actives have a fitted effect of over 55% in size; also: potency is read from the fitted curve at half-maximal effect); settings: ARE-bla HepG2 viability, CellTiter-Glo luminescence, 16 h; viability change, negative = cytotoxic: at 73.3 µM (top of the series)
# Summary of the method: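 HepG2 cells carrying ARE-driven beta-lactamase; 2,000 cells/well; 5 hrs plating; compound pinned from DMSO; 16 hrs 37C/5% CO2; CellTiter-Glo added; 30 min RT; luminescence.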
# [14] = qHTS assay for small molecule activators of the heat shock response signaling pathway - cell viability counter screen (AID 743209); settings: HSE-bla HeLa viability, CellTiter-Glo luminescence, 5 h; activity change, negative = cytotoxicity: at 62.6 µM (top of the series)
# Summary of the method: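 Luminescence from CellTiter-Glo, added after the beta-lactamase FRET read, gave the viability signal. Cells were HSE-bla HeLa treated with DMSO-dissolved compounds for 5 h at 37 C following overnight plating.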
# [15] = molecular target: Vitamin D3 receptor (Homo sapiens) (UniProt P11473); assay: qHTS assay to identify small molecule agonists of the vitamin D receptor (VDR) signaling pathway (AID 743222; calls by dose curve; also: potency is read from the fitted curve at half-maximal effect); settings: HEK293T VDR-UAS-bla, beta-lactamase FRET ratio, 16 h; activation: at 63.5 µM (top of the series) unless noted
# Summary of the method: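 VDR-bla cells, 2,000/well; 4 h preincubation 37C; cpd (DMSO) 16 h; LiveBLAzer B/G substrate 2 h RT; fluorescence intensity read.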
# [16] = molecular target: Peroxisome proliferator-activated receptor delta (Homo sapiens) (UniProt Q03181); assay: qHTS assay to identify small molecule agonists of the peroxisome proliferator-activated receptor delta (PPARd) signaling pathway (AID 743212; calls by dose curve; also: % is scaled to controls: 0 for no effect and ±100 for the full control effect); settings: HEK293H PPARd-UAS-bla, beta-lactamase FRET ratio, 17 h; activation: at 62.6 µM (top of the series) unless noted
# Summary of the method: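 HEK293H UAS-bla reporter cells, human PPARd system; compounds delivered in DMSO after 5 h plating, then at 37 C. Beta-lactamase FRET read, 2 h RT substrate step.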
# [17] = qHTS assay for small molecule activators of the heat shock response signaling pathway (AID 743210; active = well fitted activation curve with a large enough effect in the signal ratio in the repeat runs, with a control signal flat, not every such curve was filed as active; inconclusive = weak or mixed curves; the % refers to the signal ratio;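 also: HeLa cells with beta-lactamase reporter driven by heat shock elements; % is scaled to controls: 0 for no effect and ±100 for the full control effect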); settings: HeLa HSE-bla reporter, beta-lactamase ratio, 5 h; activation: at 62.6 µM (top of the series) unless noted
# Summary of the method: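 In HSE-bla HeLa cells, 5 h compound incubation (37 C) precedes addition of LiveBLAzer B/G substrate; after 2.5 h at room temperature, fluorescence intensity indicates reporter induction.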
# [18] = molecular target: Bile acid receptor (Homo sapiens) (UniProt Q96RI1); assay: qHTS assay to identify small molecule agonists of the farnesoid-X-receptor (FXR) signaling pathway (AID 743220; active = well fitted activation curve with a large enough effect in the signal ratio in the repeat runs, not every such curve was filed as active; inconclusive = weak or mixed curves, or effect the other way; the % refers to the signal ratio; also: potency is read from the fitted curve at half-maximal effect); settings: HEK293T FXR-UAS-bla, beta-lactamase FRET ratio, 16 h; activation: at 62.6 µM (top of the series)
# Summary of the method: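 Beta-lactamase reporter under UAS control in GeneBLAzer FXR HEK 293T cells (5000/well) measured with LiveBLAzer FRET substrate after 2 h at room temperature. Compound exposure lasted 16 h at 37C.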
# Tags tell the direction and shape of the fitted curve or compound fluorescence and quenching.
# Chain of UniProt P11473 (P11473 whole entry, looked up): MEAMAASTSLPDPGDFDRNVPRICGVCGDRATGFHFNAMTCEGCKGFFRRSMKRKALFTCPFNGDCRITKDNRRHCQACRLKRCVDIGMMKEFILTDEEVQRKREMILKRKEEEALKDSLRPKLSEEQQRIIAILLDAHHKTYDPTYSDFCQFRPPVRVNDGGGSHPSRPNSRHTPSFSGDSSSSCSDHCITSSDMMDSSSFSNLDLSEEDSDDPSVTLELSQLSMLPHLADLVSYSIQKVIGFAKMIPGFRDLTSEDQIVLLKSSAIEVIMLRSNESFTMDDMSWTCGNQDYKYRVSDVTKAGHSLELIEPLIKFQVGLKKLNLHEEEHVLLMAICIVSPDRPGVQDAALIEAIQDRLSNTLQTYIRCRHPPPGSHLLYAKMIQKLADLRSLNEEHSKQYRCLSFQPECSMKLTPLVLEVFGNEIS
# Chain of UniProt Q03181 (Q03181 whole entry, looked up): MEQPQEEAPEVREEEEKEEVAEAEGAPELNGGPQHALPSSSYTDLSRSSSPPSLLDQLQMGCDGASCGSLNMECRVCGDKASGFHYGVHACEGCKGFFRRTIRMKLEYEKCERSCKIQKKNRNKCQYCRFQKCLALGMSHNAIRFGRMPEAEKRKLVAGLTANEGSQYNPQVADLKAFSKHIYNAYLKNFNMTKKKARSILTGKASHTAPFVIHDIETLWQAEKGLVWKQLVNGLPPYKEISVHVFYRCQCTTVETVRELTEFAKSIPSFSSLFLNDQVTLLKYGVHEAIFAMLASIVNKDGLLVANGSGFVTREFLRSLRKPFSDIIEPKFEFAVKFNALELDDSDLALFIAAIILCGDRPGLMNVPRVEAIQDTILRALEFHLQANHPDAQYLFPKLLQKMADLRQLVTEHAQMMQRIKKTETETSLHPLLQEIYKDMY
# Chain of UniProt Q96RI1 (Q96RI1 whole entry, looked up): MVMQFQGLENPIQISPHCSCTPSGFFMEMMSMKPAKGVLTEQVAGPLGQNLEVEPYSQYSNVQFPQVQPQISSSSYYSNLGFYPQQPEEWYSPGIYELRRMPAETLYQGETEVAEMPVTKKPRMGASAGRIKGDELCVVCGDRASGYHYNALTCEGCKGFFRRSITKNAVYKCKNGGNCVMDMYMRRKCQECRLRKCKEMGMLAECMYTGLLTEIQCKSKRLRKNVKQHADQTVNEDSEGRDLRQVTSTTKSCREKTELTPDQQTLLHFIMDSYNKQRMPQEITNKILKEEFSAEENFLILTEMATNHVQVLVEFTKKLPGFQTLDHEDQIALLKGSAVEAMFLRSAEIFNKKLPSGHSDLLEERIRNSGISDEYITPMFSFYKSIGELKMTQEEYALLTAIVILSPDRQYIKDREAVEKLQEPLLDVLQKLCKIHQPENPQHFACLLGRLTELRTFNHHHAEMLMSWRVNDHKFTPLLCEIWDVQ
structure (smiles),measurement,setting,value
O=C(CCC1CCN(Cc2ccccc2)CC1)c1ccc2c(c1)NCCCC2,Potency,[1],active: 23.7 µM
same,Potency,[2],"inconclusive: 15 µM [cytotoxic, partial curve, poor fit]"
same,Potency,[3],inactive
same,Potency,[4],"inconclusive: 18.8 µM [cytotoxic, partial curve]"
same,Potency,[5],"inconclusive: 10.7 µM [cytotoxic, partial curve, poor fit]"
same,Potency,[6],"inconclusive: 10.6 µM [inhibitor, single point]"
same,Potency,[7],"inconclusive: 30.1 µM [falling, partial curve, poor fit]"
OCCc1ccncc1,Potency,[1],inactive
same,Potency,[8],inactive
same,Potency,[9],inactive
same,Potency,[6],inactive
same,activation,[7],inconclusive: -7.77%
Fc1ccccc1-c1ccccc1,activation,[1],inconclusive: -1.48% [at 94.8 µM]
same,Potency,[2],inactive
same,Potency,[10],inactive
same,Potency,[6],inactive
same,Potency,[7],inactive
OC(CCN1CCCCC1)(c1ccccc1)C1CCCCC1 (configuration not stated),Potency,[3],"inconclusive: 5.96 µM [cytotoxic, single point]"
same,Potency,[11],inactive
same,Potency,[6],inactive
same,Potency,[7],"inconclusive: 26.8 µM [activator, single point]"
CCN(CCO)CCCC(C)Nc1ccnc2cc(Cl)ccc12 (configuration not stated),activation,[1],inactive: -5.09% [at 8.36 µM]
same,"viability change, negative = cytotoxic",[3],inconclusive: 4.11% [cytotoxic] [at 6.26 µM]
same,"activity change, negative = inhibition",[9],inactive: -3.93% [at 6.95 µM]
same,"activity change, negative = inhibition",[6],inactive: 13.3% [at 8.39 µM]
same,Potency,[7],"inconclusive: 3.01 µM [falling, partial curve, poor fit]"
CNC(=S)NC,Potency,[1],"inconclusive: 68.6 µM [rising, single point]"
same,"ratio activity, negative = inhibition",[11],inconclusive: -4.49%
same,Potency,[12],active: 17.4 µM
same,"activity change, negative = inhibition",[9],inconclusive: -28.1%
same,Potency,[5],"inconclusive: 54.9 µM [cytotoxic, single point]"
same,Potency,[6],"inconclusive: 43.3 µM [inhibitor, partial curve, poor fit]"
same,Potency,[7],inactive
Cc1cn([C@@H]2O[C@H](CO)[C@@H](O)[C@@H]2F)c(=O)[nH]c1=O,Potency,[12],"inconclusive: 18.8 µM [rising, partial curve, poor fit]"
same,Potency,[4],inactive
same,Potency,[6],"inconclusive: 0.668 µM [inhibitor, single point]"
same,Potency,[7],inactive
CC1=C(C)S(=O)(=O)CCS1(=O)=O,Potency,[13],"inconclusive: 12 µM [rising, partial curve, poor fit]"
same,Potency,[9],inactive
same,Potency,[4],inactive
same,Potency,[6],"inconclusive: 60 µM [inhibitor, partial curve]"
same,activation,[7],inconclusive: -1.46%
O=C(NCCO[N+](=O)[O-])c1cccnc1,Potency,[14],"inconclusive: 1.06 µM [cytotoxic, partial curve, poor fit]"
same,Potency,[3],inactive
same,Potency,[15],inactive
same,Potency,[6],"inconclusive: 1.19 µM [inhibitor, single point]"
same,Potency,[7],"inconclusive: 0.0017 µM [falling, partial curve, poor fit]"
CC(=O)OCC(=O)[C@@]12OC(C)(C)O[C@@H]1C[C@H]1[C@@H]3C[C@H](F)C4=CC(=O)C=C[C@]4(C)[C@@]3(F)[C@@H](O)C[C@@]12C,Potency,[13],inactive
same,Potency,[3],inactive
same,Potency,[9],"inconclusive: 16.9 µM [activator, partial curve, poor fit]"
same,Potency,[6],"inconclusive: 33.5 µM [inhibitor, single point]"
same,Potency,[7],inactive
CN1CCC(=C2c3ccccc3CC(=O)c3sccc32)CC1,activation,[1],inconclusive: -18.8%
same,Potency,[16],inactive
same,Potency,[3],"inconclusive: 2.98 µM [cytotoxic, single point]"
same,Potency,[6],inactive
same,Potency,[7],inactive
Cc1cc(OI)c(C(C)C)cc1-c1cc(C(C)C)c(OI)cc1C,activation,[17],inconclusive: 7.81%
same,Potency,[18],"inconclusive: 16.8 µM [rising, single point]"
same,Potency,[5],inactive
same,Potency,[6],"inconclusive: 7.5 µM [inhibitor, single point]"
same,Potency,[7],inconclusive: 26.8 µM
NC(=O)Cn1c(=O)cc(CCN2CCN(c3nccc4sccc34)CC2)c2ccc(F)cc21,"activity change, negative = inhibition",[8],inconclusive: -27.9%
same,Potency,[18],inactive
same,Potency,[15],"inconclusive: 19.5 µM [rising, partial curve]"
same,Potency,[6],"inconclusive: 34.4 µM [inhibitor, partial curve]"
same,activation,[7],inconclusive: -15.5%
